# Measurements from PubChem BioAssay (NCATS).
# Where “and” joins values, the source holds several entries; their conditions need not be identical. Equal values may be shown once. The inconclusive results got no clear call from the source; some entries with a clear call stand among them for comparison. For some assays here: Where the call is inconclusive, the potency comes from a doubtful curve fit. Calls of active or inactive are those of the source. Unless noted, calls come from the whole dose curve; as a rule, active = well fitted curve in the direction sought with a large enough effect; inconclusive = small, poorly fitted or top-dose-only effect, or another doubt; inactive = no such curve, though single readings can be large; an effect the other way counts as inactive or inconclusive.
# Key:
# [1] = Nrf2 qHTS screen for inhibitors: Validation (AID 493153; active = well fitted inhibition curve with a large enough effect in the main read-out, with a control signal flat, not every such curve was filed as active; inconclusive = small, poorly fitted or top-dose-only effect, or effect the other way, or a change in a side signal; inactive = no such curve, though single readings can be large or run the other way; note: % of control where 0% means no effect)
# How it was run: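 A549 cells carrying an ARE-driven firefly luciferase reporter, in 5% FBS OPTI-MEM, were treated with compounds in concentration-response for 18-24 h at 37°C. Viability was read by CellTiter-Fluor fluorescence, then Nrf2 activity by luciferase luminescence.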
# [2] = qHTS for Inhibitors of ATXN expression: Validation of Cytotoxic Assay (AID 588349); note: potency is the fitted concentration of half-maximal effect
# How it was run: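 HEK293 cells were dosed with titrated compounds for 72 hr at 37 degrees C. Viability was read by CellTiter Glo luminescence, with intracellular ATP as the marker of cell survival.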
# [3] = qHTS for Inhibitors of ATXN expression: Validation (AID 588378); note: potency is the fitted concentration of half-maximal effect; nearly all actives have a fitted effect of over 75% in size
# How it was run: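 Luminescence from an ATXN2-FFLuc reporter in HEK293 cells served as read-out after 24 h compound treatment at 37 degrees C; CellTiter-Fluor fluorescence was recorded first to assess viability.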
# [4] = qHTS Assay for Identifying Gametocytocidal Compounds (AID 743244); note: potency is the fitted concentration of half-maximal effect;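 for max response: % is set by controls: 0 for no effect and ±100 for the full control effect; actives lower the fluorescent signal which means gametocytes are killed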; settings: P. falciparum 3D7 stage III-V gametocytes, alamarBlue, 72 h; max response: stronger effect = lower value
# How it was run: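 Compounds are pinned into medium, gametocytes (stage III–V, 3D7, 20,000 cells/well) added, and plates held 72 h at 37 °C in 5% CO2. AlamarBlue follows for 24 h before fluorescence reading.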
# [5] = P-glycoprotein substrates identified in KB-8-5-11 adenocarcinoma cell line, qHTS therapeutic library screen (AID 1346987); settings: activity change, negative = cytotoxicity: at 44.5 µM (top of the series); note: nearly all actives have a fitted effect of over 65% in size; note: potency is the fitted concentration of half-maximal effect; for activity change, negative = cytotoxicity: % is set by controls: 0 for no effect and ±100 for the full control effect
# How it was run: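 KB-8-5-11: colchicine-selected sub-line of KB-3-1 over-expressing P-gp; assay medium lacked colchicine. 72 h drug exposure at 37 degree C, CellTiter-Glo.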
# [6] = target: Tyrosine-protein phosphatase non-receptor type substrate 1 (Homo sapiens) + Leukocyte surface antigen CD47 (Homo sapiens) (UniProt P78324+Q08722); assay: CD47-SIRPalpha protein protein interaction - LANCE assay qHTS validation (AID 1347057; active = well fitted curve in the direction sought with a large enough effect in the signal ratio, with a control signal flat, not every such curve was filed as active; inconclusive = small, poorly fitted or top-dose-only effect, or effect the other way, or a change in a side signal; inactive = no such curve, though single readings can be large or run the other way; the % refers to the signal ratio; note: 0% is about no effect)
# How it was run: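 First, His-tagged CD47 and Eu-labelled anti-His antibody met the compound for 30 min; next, site-specifically biotinylated SIRPalpha was added for 30 min; finally streptavidin-APC was added before reading the TR-FRET ratio.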
# [7] = qHTS of pediatric cancer cell lines to identify multiple opportunities for drug repurposing: Primary screen for BT-37 cells (AID 1347094);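 note: plate controls were DMSO for no effect and bortezomib for full effect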
# How it was run: (§1)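 Primary screen of approved and investigational compounds on cells in growth media at 37 degrees C, 5% CO2. MIPE set at 11-point and NPC set at 8-point dilutions; viability scored by ATP-based luminescence at 48 hours.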
# [8] = qHTS of pediatric cancer cell lines to identify multiple opportunities for drug repurposing: Primary screen for OHS-50 cells (AID 1347103); settings: OHS-50 osteosarcoma viability, CellTiter-Glo luminescence, 48 h; activity change, negative = cytotoxic: at 57.3 µM (top of the series); note: potency is the fitted concentration of half-maximal effect; nearly all actives have a fitted effect of over 40% in size
# How it was run: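 Cells (500-1,000/well) rested 5 h, then received compounds for 48 h; metabolically active cells were measured by CellTiter-Glo luminescence. Final concentrations spanned up to 46 µM (MIPE, 11-point) or 0.59 nM-46 µM (NPC, 8-point) in primary screens, 11-point in follow-ups.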
# [9] = qHTS of pediatric cancer cell lines to identify multiple opportunities for drug repurposing: Primary screen for Rh41 cells (AID 1347108);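 note: luminescence drop marks cytotoxic hits; nearly all actives have a fitted effect of over 70% in size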
# How it was run: as §1
# [10] = qHTS to identify inhibitors of the type 1 interferon - major histocompatibility complex class I in skeletal muscle: primary screen against the NCATS Mechanism Interrogation Plate v5.0 (MIPE) Libary (AID 1347411); settings: iHSKM cells + IFN-b, HiBiT-tagged MHC-I luminescence, 24 h; activity change, negative = inhibition: at 45.8 µM (top of the series) unless noted;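 note: plate controls were vehicle for no effect and reference inhibitor for full effect; nearly all actives have a fitted effect of over 65% in size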
# How it was run: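 Immortalized human C25cl48 myoblasts with HiBit knocked into endogenous HLA-B*08:01 were stimulated with 4.0 ng/ml IFN-beta and exposed to compounds (11-point 1:3 titration, top 46 uM final) for 24 hrs at 37 C; HiBiT lytic luminescence measured.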
# [11] = Primary qHTS for inhibitors of La Crosse Virus (LACV) - induced cell death in SH-SY5Y cells (AID 1508616); note: potency is the fitted concentration of half-maximal effect
# How it was run: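 Luminescent ATP readout (ATPLite 1step, 5 min room temperature) measured rescue from LACV-induced death after 6 days of infection at 0.01 MOI; normalized to infected DMSO wells and uninfected DMSO wells.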
# [12] = Cell Viability qHTS for small molecule stabilizers of the endoplasmic reticulum resident proteome (AID 1508629); settings: cell viability counter-screen, 100 nM thapsigargin for final 4 h;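 note: compound exposure about 46 h in total before the viability read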; note: potency is the fitted concentration of half-maximal effect;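 for max response: human SH-SY5Y neuroblastoma cells carrying the GLuc-SERCaMP reporter; % is set by controls: 0 for no effect and ±100 for the full control effect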
# [13] = Primary qHTS for small molecule stabilizers of the endoplasmic reticulum resident proteome: Secreted ER Calcium Modulated Protein (SERCaMP) assay (AID 1508630); settings: SH-SY5Y GLuc-SERCaMP (Gaussia luciferase released on ER calcium loss) secretion, thapsigargin, luminescence; activity change, negative = inhibition: at 38.4 µM (top of the series) unless noted; note: potency is the fitted concentration of half-maximal effect
# How it was run: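 GLuc-SERCaMP-expressing SH-SY5Y cells, pretreated 16 h with compound, are challenged with thapsigargin to empty ER calcium stores; after 4 h, coelenterazine is added directly to the medium and luminescence is imaged.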
# [14] = target: Cytochrome P450 2D6 (Homo sapiens) (UniProt P10635); assay: Cytochrome P450 family 2 subfamily D member 6 (CYP2D6) small molecule antagonists: luciferase biochemical (cell-free) qHTS assay (AID 1645840; active = well fitted curve in the direction sought with a large enough effect in the repeat runs; inconclusive = weak or mixed curves; inactive = no such curve, though single readings can be large; an effect the other way counts as inactive or inconclusive; note: potency is the fitted concentration of half-maximal effect; nearly all actives have a fitted effect of over 55% in size)
# How it was run: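 P450-Glo luminescent screen: recombinant CYP2D6 enzyme–proluciferin substrate mix preincubated with compound 10 min at room temperature, then NADPH regeneration added for 1 h at room temperature. Detection reagent added for 20 min; luciferin light read as relative luminescence units.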
# [15] = Primary qHTS for inhibitors of nuclear receptor binding SET domain protein 2 (NSD2) in an RCH-ACV wild type WT cells (2C) (AID 1645877); settings: activity change, negative = cell killing: at 44.9 µM (top of the series) unless noted; note: potency is the fitted concentration of half-maximal effect; nearly all actives have a fitted effect of over 70% in size
# [16] = target: Glutathione peroxidase 1 (Homo sapiens) (UniProt P07203); assay: Primary qHTS Assay for Inhibitors of Recombinant Selenoprotein Glutathione Peroxidase 1 (GPX1) (AID 1845191); note: potency is the fitted concentration of half-maximal effect; nearly all actives have a fitted effect of over 65% in size
# How it was run: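 10 nM GPX1 + cpd, 30 min RT; start w/ 1 mM GSH, 0.5 mM cumene hydroperoxide, 0.5 mM NADPH, 100 nM GR, 0.01% BSA; buffer 50 mM Tris-HCl pH 7.5, 2 mM EDTA, 150 mM NaCl; Fl 340/450, 0 & 15 min.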
# [17] = target: Phospholipid hydroperoxide glutathione peroxidase GPX4 (Homo sapiens) (UniProt P36969); assay: Primary qHTS Assay for Inhibitors of Recombinant Selenoprotein Glutathione Peroxidase 4 (GPX4) (AID 1845192); settings: activity change, negative = inhibition: at 50 µM (top of the series) unless noted; note: nearly all actives have a fitted effect of over 65% in size; note: potency is the fitted concentration of half-maximal effect; for activity change, negative = inhibition: % is set by controls: 0 for no effect and ±100 for the full control effect
# How it was run: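 NADPH consumption, followed by fluorescence at 340/450 nm between 0 and 15 min, reports GPX4 activity via coupled glutathione reductase (100 nM). Enzyme 200 nM was pre-exposed to compound 30 min; 0.5 mM cumene hydroperoxide and 1 mM GSH served as substrates.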
# [18] = Quantitative High-Throughput drug screen in 47 multiple myeloma cell lines against the NCATS MIPE library collection: Delta47_JCRB cell viability assay (AID 1918925; note: nearly all actives have a fitted effect of over 45% in size)
# How it was run: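 Approved and investigational drugs from MIPE 4.0 were added by pin tool to 500 cells per well. After 48 hours at 37C, ATP-based CellTiter-Glo luminescence indicated remaining viability.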
# [19] = Quantitative High-Throughput drug screen in 47 multiple myeloma cell lines against the NCATS MIPE library collection: ARP1_JJKsccF8 cell viability assay (AID 1918928; note: nearly all actives have a fitted effect of over 40% in size)
# How it was run: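 Luminescence from CellTiter-Glo, taken after 5 min at room temperature, reports cellular ATP as viability. Cells (500 per well) had been treated 48 h at 37 °C with MIPE 4.0 compounds, scaled between DMSO and medium-only controls.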
# [20] = Quantitative High-Throughput drug screen in 47 multiple myeloma cell lines against the NCATS MIPE library collection: Karpas417_ECACC cell viability assay (AID 1918961); settings: Karpas417 myeloma viability, CellTiter-Glo ATP luminescence, 48 h; viability (% of DMSO): at 45.8 µM (top of the series)
# How it was run: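 We plated 500 myeloma cells per well, pinned in MIPE 4.0 compounds, and incubated for 48 hours at 37C. ATP was then quantified with CellTiter-Glo, with DMSO and media-only wells defining 100% and 0%.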
# [21] = Quantitative High-Throughput drug screen in 47 multiple myeloma cell lines against the NCATS MIPE library collection: KHM11_PLB cell viability assay (AID 1918962); note: potency is the fitted concentration of half-maximal effect; nearly all actives have a fitted effect of over 35% in size
# How it was run: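 Primary qHTS used for cherry-picking: cells at 500/well, library compounds for 48 h (37C, 5% CO2), luminescent ATP assay.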
# Tags give direction and shape of the fitted curve.
# UniProt P36969, sequence (P36969 whole entry, looked up): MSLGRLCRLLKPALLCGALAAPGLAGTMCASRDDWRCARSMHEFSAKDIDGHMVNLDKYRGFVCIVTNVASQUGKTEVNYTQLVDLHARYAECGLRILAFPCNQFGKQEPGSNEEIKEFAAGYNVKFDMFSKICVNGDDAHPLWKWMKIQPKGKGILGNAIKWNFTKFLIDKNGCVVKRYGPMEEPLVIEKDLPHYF
# UniProt P78324, sequence (P78324 whole entry, looked up): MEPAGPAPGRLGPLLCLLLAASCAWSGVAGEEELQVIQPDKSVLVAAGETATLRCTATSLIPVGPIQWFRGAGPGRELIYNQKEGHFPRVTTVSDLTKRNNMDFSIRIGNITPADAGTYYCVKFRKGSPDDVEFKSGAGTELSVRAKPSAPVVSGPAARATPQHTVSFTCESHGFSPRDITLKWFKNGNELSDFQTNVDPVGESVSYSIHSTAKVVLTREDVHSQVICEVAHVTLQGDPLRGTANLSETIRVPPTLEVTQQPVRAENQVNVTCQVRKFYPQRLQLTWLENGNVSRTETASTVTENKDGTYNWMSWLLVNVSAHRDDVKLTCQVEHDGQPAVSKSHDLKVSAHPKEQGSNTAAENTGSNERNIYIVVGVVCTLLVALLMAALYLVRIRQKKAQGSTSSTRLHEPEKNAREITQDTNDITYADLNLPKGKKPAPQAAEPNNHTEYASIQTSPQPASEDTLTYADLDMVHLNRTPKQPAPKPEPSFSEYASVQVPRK
# UniProt P78324, sequence (Q08722 whole entry, looked up): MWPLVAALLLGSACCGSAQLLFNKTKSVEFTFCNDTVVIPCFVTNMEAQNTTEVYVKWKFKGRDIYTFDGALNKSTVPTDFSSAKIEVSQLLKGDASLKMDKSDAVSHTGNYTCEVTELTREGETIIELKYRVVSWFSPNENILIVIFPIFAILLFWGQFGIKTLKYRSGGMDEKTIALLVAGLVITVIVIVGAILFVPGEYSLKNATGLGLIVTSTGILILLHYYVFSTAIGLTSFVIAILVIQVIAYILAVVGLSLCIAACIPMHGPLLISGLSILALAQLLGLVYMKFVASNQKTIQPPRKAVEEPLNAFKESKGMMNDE
# UniProt P10635, sequence (P10635 whole entry, looked up): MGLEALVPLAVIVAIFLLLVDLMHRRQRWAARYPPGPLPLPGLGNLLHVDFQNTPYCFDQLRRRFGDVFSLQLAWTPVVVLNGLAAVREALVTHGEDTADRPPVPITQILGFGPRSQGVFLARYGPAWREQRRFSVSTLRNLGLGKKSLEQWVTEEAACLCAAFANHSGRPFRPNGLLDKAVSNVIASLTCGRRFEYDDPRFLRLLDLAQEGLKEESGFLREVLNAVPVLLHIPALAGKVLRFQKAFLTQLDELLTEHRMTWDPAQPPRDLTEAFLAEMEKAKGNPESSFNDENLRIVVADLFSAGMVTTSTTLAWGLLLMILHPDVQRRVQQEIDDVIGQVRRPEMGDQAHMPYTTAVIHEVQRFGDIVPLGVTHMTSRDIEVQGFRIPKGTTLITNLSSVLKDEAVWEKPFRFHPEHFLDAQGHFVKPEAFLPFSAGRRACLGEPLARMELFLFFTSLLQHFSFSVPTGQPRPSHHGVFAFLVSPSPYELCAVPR
# UniProt P07203, sequence (P07203 whole entry, looked up): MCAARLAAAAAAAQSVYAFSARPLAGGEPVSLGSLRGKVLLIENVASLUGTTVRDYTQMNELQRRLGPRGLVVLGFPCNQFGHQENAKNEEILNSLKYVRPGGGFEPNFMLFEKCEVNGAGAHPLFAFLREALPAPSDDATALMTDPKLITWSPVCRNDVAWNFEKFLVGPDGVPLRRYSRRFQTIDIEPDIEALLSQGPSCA
smiles,measurement,setting,value
OC(CCN1CCCCC1)(c1ccccc1)C1CC2C=CC1C2 (stereo not drawn),Potency,[1],inactive
same,Potency,[2],"inconclusive: 20 µM [cytotoxic, single point]"
same,Potency,[3],"inconclusive: 17.8 µM [inhibitor, partial curve, poor fit]"
same,Potency,[4],"inconclusive: 14.1 µM [inhibitor, single point]"
same,max response,[4],inconclusive: -3.48% [inhibitor]
same,Potency,[5],"inactive and inconclusive: 32.6 µM [inhibitor, single point]"
same,Potency,[6],inactive
same,Potency,[7],inactive
same,Potency,[8],"inconclusive: 5.5 µM [cytotoxic, partial curve, poor fit]"
same,Potency,[9],inactive
same,Potency,[10],inactive
same,Potency,[11],"inconclusive: 2 µM [inhibitor, partial curve, poor fit]"
same,Potency,[12],"inconclusive: 0.0631 µM [rising, full curve, poor fit]"
same,max response,[12],inactive: 24.4%
same,Potency,[13],"inconclusive: 3.16 µM [inhibitor, partial curve, poor fit] and active: 10 µM and inconclusive: 31.6 µM [inhibitor, single point]"
same,Potency,[14],active: 1.23 µM
same,Potency,[15],"inconclusive: 20.9 µM [inhibitor, single point]"
same,Potency,[16],"inconclusive: 11.4 µM [inhibitor, partial curve]"
same,Potency,[17],"inconclusive: 17.8 µM [inhibitor, partial curve] and inactive"
same,Potency,[18],inactive
same,Potency,[19],inactive
same,Potency,[20],inactive
same,Potency,[21],"inconclusive: 5.26 µM [rising, partial curve, poor fit]"
